# Data published in PMC6919601, “Identification of Plasmodium dipeptidyl aminopeptidase allosteric inhibitors by high throughput screening” (PLoS ONE, 2019).
# Screen size: about 110,000 compounds; about 230 (0.21%) showed an effect of 50% or more. This is one part of the list.
# Biological target: DPAP1 (Plasmodium falciparum, UniProt Q8IIJ9)
# Assay: primary screen, percent inhibition; read by cleavage of a fluorogenic dipeptide substrate; higher = more effect of the substance
# Set-up: species or system P. falciparum D10 trophozoite lysates; single well
# 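Also: 30 min substrate incubation versus DMSO and 10 µM JCP410 controls.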
# Chain of DPAP1 (Q8IIJ9 whole entry, looked up): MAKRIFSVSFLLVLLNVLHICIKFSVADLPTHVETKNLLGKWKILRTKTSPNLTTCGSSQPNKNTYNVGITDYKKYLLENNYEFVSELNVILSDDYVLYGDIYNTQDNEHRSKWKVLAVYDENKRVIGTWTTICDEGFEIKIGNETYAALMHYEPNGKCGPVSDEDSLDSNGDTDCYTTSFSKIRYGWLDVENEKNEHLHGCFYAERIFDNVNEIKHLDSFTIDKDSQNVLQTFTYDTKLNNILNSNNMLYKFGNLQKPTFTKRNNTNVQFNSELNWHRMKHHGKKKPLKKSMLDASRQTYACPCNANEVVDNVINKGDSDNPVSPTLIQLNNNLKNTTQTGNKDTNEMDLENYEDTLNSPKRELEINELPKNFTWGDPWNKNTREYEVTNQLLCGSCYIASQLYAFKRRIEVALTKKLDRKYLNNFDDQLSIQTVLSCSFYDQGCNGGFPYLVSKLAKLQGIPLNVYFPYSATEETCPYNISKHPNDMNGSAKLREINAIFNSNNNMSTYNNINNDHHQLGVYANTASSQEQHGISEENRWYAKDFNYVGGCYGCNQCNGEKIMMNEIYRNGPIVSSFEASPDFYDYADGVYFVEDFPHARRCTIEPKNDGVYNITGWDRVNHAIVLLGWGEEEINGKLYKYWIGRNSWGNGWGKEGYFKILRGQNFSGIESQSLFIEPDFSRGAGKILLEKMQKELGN
row,SMILES,% Inhibition @ 10 uM
1,CCN(CC)C(=O)c1c(C)nn(-c2ccccc2)c1-n1cccc1,0.137%
2,COc1ccccc1C(=O)Nc1cccc(N)c1,1.34%
3,CCCC(=O)Nc1ccc(S(=O)(=O)N2CCCCC2)cc1,-0.366%
4,O=C(Nc1cccc(Cl)c1)c1c(O)nc2ccccc2c1O,-4.75%
5,CCOc1ccccc1NC(=O)C1=C(C)NC(=O)NC1c1ccc(Cl)cc1 (centres unmarked),-2.22%
6,Nc1c(C(=O)Nc2ccc(C(=O)O)cc2)sc2nc3c(cc12)CCCCCC3,4.83%
7,N#CC1=C(N)OC2=C(C(=O)c3ccccc3C2=O)C1c1ccc(F)c(F)c1 (centres unmarked),-2.21%
8,Cc1ccc(F)cc1NC(=O)Cn1nc(C(F)(F)F)cc1C1CC1,-3.71%
9,Cn1cc(C(=O)Nc2cccc(S(=O)(=O)N3CCOCC3)c2)cn1,0.35%
10,COc1ccc(-c2noc(-c3ccc(F)cc3)n2)cc1,-5.62%
11,CC(=O)N1CCC(NCCc2cccc(F)c2)CC1,1.74%
12,COCc1cc(C)nc(Sc2nc3c(c(=O)n(C)c(=O)n3C)n2C)c1C#N,18.3%
13,CC1CN(C2CCC(C(C)(C)C)CC2)CC(C)O1 (centres unmarked),-5.44%
14,COc1cccc(/C=C2\CCC(C3CCCC3)C2=O)c1OC (centres unmarked),6.2%
15,COC(=O)C1=C(C)N=C2SCC(=O)N2C1c1ccccc1 (centres unmarked),4.65%
16,CN1CCN(C(=O)CCCc2nnc3n(C)c(=O)c4sccc4n23)CC1,-1.71%
17,CCN(CC)CCn1c2ccccc2n2cc(-c3ccc(F)cc3)nc12,2.14%
18,CCOC(=O)c1c(S(=O)(=O)NCc2ccccc2C)c(C)n(C)c1C,-3.57%
19,CCN(CCCNC(=O)Cn1ncc2c3ccccc3nc-2c1O)Cc1ccccc1,-1.21%
20,COc1ccc(-c2cc(C(=O)N3CC4(C)CC3CC(C)(C)C4)no2)cc1 (centres unmarked),-3.36%
21,CCn1c(/C(C#N)=C/c2ccccc2Cl)nc2ccccc21,3.86%
22,Cc1ccc2nc(NC(=O)CN(C)S(=O)(=O)c3ccc4[nH]c(-c5ccccc5)nc4c3)sc2c1,0.0525%
23,N#C/C(=C\c1ccc(O)cc1)C(=O)NCC1CCCO1 (centres unmarked),1.67%
24,Cc1cc2c(c(=O)o1)C1(C(=O)Nc3ccc(Br)cc31)C(C#N)=C(N)O2 (centres unmarked),-5.36%
25,COc1ccc(C2=NN(CC(=O)NCCCN3CCC(Cc4ccccc4)CC3)C(=O)CC2)cc1,-0.0542%
26,CCOC(=O)C1=C(C)N=c2s/c(=C\c3ccco3)c(=O)n2C1/C=C/c1ccccc1 (centres unmarked),3.44%

row,SMILES,% Inhibition @ 10 uM
1,Cc1nc2ccc(S(=O)(=O)N(CC(=O)NCCC3=CCCCC3)Cc3ccccc3)cc2s1,1.63%
2,O=C(CC(=O)c1ccc([N+](=O)[O-])cc1)Nc1cc(C(F)(F)F)ccc1Cl,3.28%
3,CCOc1ccc2ncc(S(=O)(=O)c3ccccc3)c(N3CCOCC3)c2c1,-4.68%
4,Cc1cc(C)c2c(-n3cccc3)c(C(=O)NCCc3ccc(S(N)(=O)=O)cc3)sc2n1,9.77%
5,Cc1ccccc1CN(c1ccc(C(=O)NCc2cccnc2)cc1)S(C)(=O)=O,5.54%
6,COc1ccc(C2C(C(=O)N(C)C3CCCCC3)c3cc(OC)c(OC)cc3C(=O)N2C)cc1 (centres unmarked),0.457%
7,CCCCN(C)CCNC(=O)c1ccc(CS(=O)(=O)Cc2ccc(Cl)cc2)o1,2.05%
8,CCOC(=O)N1CCN(C(=O)c2cc(-n3cnnc3)ccc2Cl)CC1,2.99%
9,c1ccn2c(c1)nc1nc3nonc3nc12,-3.06%
10,OC1(CCC#CCN2CCCCC2)c2ccccc2-c2ccccc21,2.86%
11,Cn1cnc2c1c(=O)n(Cc1ccc(Cl)cc1F)c(=O)n2C,-3.45%
12,CC1CCN(C(=O)CCc2nc(CN3CCN(C(=O)c4noc5c4CCCC5)CC3)no2)CC1,-7.02%
13,COC(=O)C(=C/C(C)=C/c1ccco1)C(=O)OC,-5.62%
14,COc1ccc(NC(=O)CCCC(=O)Nc2ccc(OC)cc2)cc1,-0.68%
15,O=C(Nc1c(-c2ccccc2)nc2ccccn12)C1CCCCC1,0.813%
16,CCCC1CCc2c(sc(NC(=O)c3cccnc3)c2C(N)=O)C1 (centres unmarked),-1.42%
17,CC(C)(C)/C(O)=C/c1nc2ccccc2nc1/C=C(\O)C(C)(C)C,-1.84%
18,CCSc1nc2sc3c(c2c(=O)n1CC)CCCC3,1.57%
19,COc1ccc(C2C(C#N)=C(N)Oc3[nH]nc(C)c32)c(OCc2ccccc2Cl)c1 (centres unmarked),0.121%
20,Cc1ccc(C)c(S(=O)(=O)NC(C)C(=O)Nc2ccc(F)cc2)c1 (centres unmarked),-11.7%
21,O=S(=O)(NCC1CCCO1)c1ccc(Oc2ccccc2)cc1 (centres unmarked),0.161%
22,CCc1ccc(CNC(=O)c2cc3c(C)nc4ccccc4c3o2)cc1,-3.45%
23,CC(C)C[C@H](NC(=O)c1ccc(OC(F)(F)C(F)F)cc1)C(=O)NCC#N,0.174%
24,CCOC(=O)c1c(NC(=O)CN(C)C)sc2c1CCC2,1.72%
25,CCC(=O)Nc1ccc(S(=O)(=O)Nc2nc(C)cc(C)n2)cc1,-6.51%
26,CCOC(=O)c1cc(-c2ccccc2)n(CC(=O)NC2CCCCCC2)c1C,15.2%

row,SMILES,% Inhibition @ 10 uM
1,Cc1c(C(=O)N(C)CCC#N)oc2ccc(S(=O)(=O)N3CC(C)CC(C)C3)cc12 (centres unmarked),3.66%
2,COC(=O)C1=C(C)N=C2SC(C)C(=O)N2C1c1ccc(OCc2ccccc2)cc1 (centres unmarked),-1.4%
3,COc1ccc(-c2c(C)nn3c(N4CCN(c5ccccn5)CC4)cc(C)nc23)cc1OC,-0.138%
4,Oc1ccc(CN2CCN(c3ncccn3)CC2)cc1,-5.5%
5,c1ccc(-n2nnnc2SCCCNCc2ccc3c(c2)OCO3)cc1,5.39%
6,Cc1cccc(NC(=O)CSc2ncccn2)c1,0.245%
7,CC(C)C(=O)NCCCc1nc2ccccc2n1Cc1ccccc1Cl,2.73%
8,O=C(O)C1C2C=CC3(CN(Cc4ccccn4)C(=O)C13)O2 (centres unmarked),-2.87%
9,NS(=O)(=O)c1ccc(NC(=O)Cc2ccccc2)cc1,-1.44%
10,Cc1sc(-n2cccc2CNCc2ccc(F)cc2)c(C(=O)O)c1C,-5.15%
11,N=C(NOC(=O)COc1ccc(Cl)cc1Cl)c1ccncc1,0.128%
12,CCCC(=O)C1=C(NCCO)CC(C)(C)CC1=O,-7.02%
13,COc1ccccc1C(=O)O/N=C(\c1ccccc1)c1ccncc1,3.16%
14,CC(C)NC(=O)c1ccc([N+](=O)[O-])cc1,-4.87%
15,Cc1ccc(-c2cc(NC(=O)CC(C)C)on2)cc1,1.9%
16,Cc1ccc(C(=O)N2CCCCC2)cc1,-0.357%
17,Cc1ccc(OC(C)c2nc(-c3ccc(OCC(N)=O)cc3)no2)cc1C (centres unmarked),-0.828%
18,C=CCN1C=CC=C/C1=C\c1sc2ccccc2[n+]1CC,-1.11%
19,COc1ccc(OC)c(NS(=O)(=O)c2ccc(C)cc2)c1,1.61%
20,O=C(c1ccccc1)C1Oc2ccccc2OCC1(O)c1ccccc1 (centres unmarked),-2.59%
21,CCOc1cc(/C=C2\C(=O)ON=C2c2ccccc2)ccc1OC,-1.6%
22,Cn1c(=O)c2ncn(CC(=O)Nc3ccc(F)cc3)c2n(C)c1=O,0.161%
23,CCn1c(=N)n(CC(=O)c2ccc(C)cc2)c2ccccc21,-0.661%
24,CC(=O)c1ccc(N2CCN(Cc3ccc(F)cc3F)CC2)cc1,-1.64%
25,CCCCNC(=O)c1cccc2c1-c1ccccc1C2=O,-0.478%
26,COc1ccccc1C1=N/C(=C\c2ccc(Cl)cc2Cl)C(=O)O1,3.1%

row,SMILES,% Inhibition @ 10 uM
1,O=C(NCc1cccnc1)c1ccc2nc3ccsc3c(=O)n2c1,-1.54%
2,Cc1cc(Cl)ccc1OCC(=O)Nc1ccc(Cl)cn1,7.73%
3,O=C(NCc1cccnc1)C1CCN(S(=O)(=O)c2cccc3nsnc23)CC1,0.208%
4,O=C1c2ccc(Br)cc2C(=O)N1c1cc(Cl)ccc1O,6.49%
5,Cc1noc(C(=O)Nc2sc3c(c2C#N)CCC3)c1Cl,1.62%
6,COc1ccc2nc3oc(C(=O)NC4CCN(Cc5ccccc5)CC4)cc3cc2c1,0.208%
7,Cc1ccc(CCSc2cc(C(C)(C)C)c(F)c(C(C)(C)C)c2)cn1,-1.42%
8,CCOc1cccc(OCC)c2c(C)[o+]c(C)c1-2,4.18%
9,O=C(O)C1CCN(S(=O)(=O)c2ccc(Br)s2)CC1,-7.66%
10,O=C(Nc1ccc(Cl)c(Cl)c1)c1ccccc1NC(=O)C1CCCCC1C(=O)O (centres unmarked),-0.95%
11,Cc1ccc(OCCC(=O)Nc2cc(C)ccc2F)cc1,6.65%
12,O=C(NC(Cc1ccccc1)c1ccc2c(c1)OCCCO2)c1ccco1 (centres unmarked),1.27%
13,COc1ccc(CNCCSc2nnnn2C)c(OC)c1OC,3.27%
14,Nc1nonc1-c1nc2ccccc2n1CC(=O)Nc1ccc(OC(F)(F)F)cc1,0.231%
15,CC1=NC(C)=C(C(=O)OC(C)(C)C)C(C(C)C)/C1=C(\O)OC(C)(C)C (centres unmarked),-2.09%
16,O=C(NCCCN1CCOCC1)c1ccc2c(c1)OCO2,-5.85%
17,CN1CCN(C(=O)CSc2nc3ccc(NC(=O)c4ccccc4F)cc3s2)CC1,2.01%
18,CC(=O)C1=C(O)C(=O)N(CCCN2CCOCC2)C1c1ccc(C)cc1 (centres unmarked),1.79%
19,CC1NC(C)(C)CC(C)(C)c2ccccc21 (centres unmarked),-3.26%
20,CCC(C(=O)NCc1ccc2c(c1)OCO2)n1nc(C)c2sc3ccccc3c2c1=O (centres unmarked),0.39%
21,CCOc1ccccc1C(=O)NCc1cccnc1,2.01%
22,CC1=C(C(=O)OCC2CCCCC2)C(c2cccc(Br)c2)NC(=O)N1 (centres unmarked),3.61%
23,CC(CC(=O)NCc1ccccc1)C1CCCO1 (centres unmarked),0.986%
